# PMC4336329 (PLoS ONE, 2015)
# The campaign covered roughly 310,000 compounds. About 14,000 (4.5%) showed an effect of 50% or more. The effect is printed as a negative number. The list shows a part of the results.
# Biological target: human ether-à-go-go-related gene (hERG) potassium channel (human, UniProt Q12809)
# Assay: primary screen, population patch clamp on CHO cells stably expressing hERG
# 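Note: peak tail current of the secondary pulse compared with the same well before compound.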
# human ether-à-go-go-related gene (hERG) potassium channel, sequence (Q12809 whole entry, looked up): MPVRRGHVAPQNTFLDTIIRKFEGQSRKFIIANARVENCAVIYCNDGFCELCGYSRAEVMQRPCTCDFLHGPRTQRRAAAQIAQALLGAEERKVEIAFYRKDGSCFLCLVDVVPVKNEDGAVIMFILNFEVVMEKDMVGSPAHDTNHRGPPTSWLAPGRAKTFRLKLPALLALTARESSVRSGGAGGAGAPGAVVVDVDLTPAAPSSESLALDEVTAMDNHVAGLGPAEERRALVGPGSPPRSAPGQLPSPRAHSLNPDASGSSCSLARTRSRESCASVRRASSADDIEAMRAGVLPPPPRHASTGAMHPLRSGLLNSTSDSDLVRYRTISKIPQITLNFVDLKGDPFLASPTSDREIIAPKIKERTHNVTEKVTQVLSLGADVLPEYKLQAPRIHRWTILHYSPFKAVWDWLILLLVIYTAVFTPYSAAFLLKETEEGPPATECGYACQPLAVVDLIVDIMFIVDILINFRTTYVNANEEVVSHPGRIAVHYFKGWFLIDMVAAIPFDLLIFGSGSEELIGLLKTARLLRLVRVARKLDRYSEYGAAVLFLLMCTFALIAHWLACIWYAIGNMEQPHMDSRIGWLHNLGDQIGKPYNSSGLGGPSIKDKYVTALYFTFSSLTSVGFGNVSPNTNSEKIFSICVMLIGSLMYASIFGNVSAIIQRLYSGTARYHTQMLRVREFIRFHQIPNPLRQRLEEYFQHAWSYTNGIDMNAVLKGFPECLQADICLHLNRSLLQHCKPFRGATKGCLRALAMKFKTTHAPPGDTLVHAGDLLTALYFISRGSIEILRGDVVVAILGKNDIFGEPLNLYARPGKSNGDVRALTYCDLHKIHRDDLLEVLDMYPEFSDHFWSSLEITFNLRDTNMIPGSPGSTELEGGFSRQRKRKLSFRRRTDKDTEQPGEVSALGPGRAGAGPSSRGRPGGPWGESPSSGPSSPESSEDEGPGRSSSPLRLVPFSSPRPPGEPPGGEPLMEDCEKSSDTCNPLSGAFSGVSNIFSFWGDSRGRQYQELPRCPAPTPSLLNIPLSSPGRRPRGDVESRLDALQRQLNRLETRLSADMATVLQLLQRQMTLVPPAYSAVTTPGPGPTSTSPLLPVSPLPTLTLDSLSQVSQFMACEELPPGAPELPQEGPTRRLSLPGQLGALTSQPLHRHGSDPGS
row,Compound,"hERG current change (%, negative = inhibition) at 10uM"
1,O=C(CN1CCN(Cc2ccccc2F)CC1)Nc1ccccc1Cl,-27.6%
2,CCOC(=O)N1CCN(S(=O)(=O)c2ccc(C(=O)N(CCCN(C)C)c3nc4c(F)cc(F)cc4s3)cc2)CC1.Cl,-51.3%
3,CCN(Cc1ccccc1)C(=O)c1ccc(C)c(S(=O)(=O)N2CCCCC2)c1,-18.4%
4,Cc1ccc(S(=O)(=O)CCC(=O)OCCOc2cccc(Br)c2)cc1,-7.39%
5,Oc1ccc(Cl)cc1C1=NCCNC(C(F)(F)C(F)F)=C1,-48.3%
6,CNS(=O)(=O)c1cccc(C(=O)OCC(=O)N2c3ccccc3NC(=O)C2(C)C)c1,-12.6%
7,CCC1=NC(c2ccccc2)N(O)C1(C)C (centres unmarked),15.8%
8,COC(=O)C1CCN(C(c2cccs2)c2sc3nc(C)nn3c2O)CC1 (centres unmarked),-6.71%
9,COc1ccccc1C(=O)O/N=C(/c1ccncc1)c1ccc([N+](=O)[O-])cc1,-67.9%
10,Cc1ccc2[nH]c3c(=O)n(CC(=O)NCCCN(C)Cc4ccccc4)ncc3c2c1,-31.6%
11,CN(CC(=O)N1CCN(c2ccccn2)CC1)S(=O)(=O)c1ccc(Cl)cc1,-46.2%
12,COc1cccc(OCc2cc(/C=N/Nc3ccc(C(=O)O)cc3)ccc2OC)c1,7.71%
13,O=C1Nc2ccccc2C(=O)N2[C@H](c3cccc(Br)c3)[C@@H]3C(=O)N(Cc4ccccc4)C(=O)[C@@H]3[C@H]12,-10.1%
14,O=S(=O)(NCCC1=CCCCC1)c1ccc(Br)cc1,-1.61%
15,O=C(NCC1CCCO1)C1CCN(C(=O)c2ccc(Br)cc2)CC1 (centres unmarked),-10.1%
16,CCCC(=O)Nc1ccc(C(=O)COC(=O)c2cc(C)oc2C)cc1,-0.605%
17,Cc1cccc(NC(=O)Cn2c(O)c(N=NC(N)=S)c3ccccc32)c1,11.8%
18,CCN1CCN(C(=O)N2CCOCC2)CC1,15.5%
19,Cc1ccc(S(=O)(=O)Nc2ccc3c(c2)n(C)c(=O)n3C)c(C)c1,4.89%
20,Cn1cnnc1Sc1ccc(C(F)(F)F)cc1[N+](=O)[O-],2.45%
21,Cc1ccc(Nc2ncnc3c2nnn3Cc2ccccc2)cc1,8.07%
22,COc1cccc(C2CC(=O)C3=C(C2)Nc2ccccc2N(C(=O)CCC(=O)O)C3c2ccc(F)cc2)c1 (centres unmarked),5.1%

row,Compound,"hERG current change (%, negative = inhibition) at 10uM"
1,O=C(Nc1ccc2c(c1)OCCO2)C(=S)NCc1ccccc1,15%
2,Clc1ccc(CONc2ncnc3nonc23)c(Cl)c1,-14.6%
3,CCN(CC)c1ccc(CN(C(=O)c2cc(OC)c(OC)c(OC)c2)C2CCS(=O)(=O)C2)cc1 (centres unmarked),0.346%
4,Cc1oc(CC(C)C)cc1C(=O)Nc1cccc2ccccc12,-58.8%
5,CCOc1ccc(NC(=O)CCC(=O)Oc2ccc(C)cc2)cc1,21.9%
6,Nc1ccc(N2CCN(c3ccc(Cl)c(Cl)c3)CC2)cc1,0.35%
7,COc1ccc([C@H]2Cc3cccc(O)c3C(=O)O2)cc1O,-14%
8,CCC(CC)NC(=O)COC(=O)CCC(=O)c1ccc(Cl)cc1,-0.492%
9,O=P(Nc1ccccc1Cl)(c1ccccc1)c1nc2c(s1)CCCC2 (centres unmarked),-49.2%
10,COC(=O)[C@H](CC(C)C)NC(=O)NCCC1=CCCCC1,1.61%
11,Cc1cc(C)c(-c2c(O)c3cccc4c3n(c2=O)CCC4)c(C)c1,-20.7%
12,CCN(CC)C(=O)C1=C(C)Nc2nnnn2C1c1cccnc1 (centres unmarked),3.24%
13,CCN(CC(=O)Nc1ccc(NC(C)=O)cc1)C(=O)CCCSc1nc2ccccc2[nH]1,-0.716%
14,O=C(CCNS(=O)(=O)c1ccc(Cl)cc1)N1CCCCCC1,-11.3%
15,O=S(=O)(c1ccccc1F)N1CCN(CC(O)c2ccccc2)CC1 (centres unmarked),2.67%
16,O=C(C1CCCN(Cc2ccc([N+](=O)[O-])cc2)C1)N1CCCCC1.O=C(O)C(=O)O (centres unmarked),-28.4%
17,CSc1nnc2ccc(-c3ccccn3)nn12,12.4%
18,COC(=O)C1(C)Nc2ccccc2C(=O)N1c1ccccc1OC (centres unmarked),10.8%
19,CCCCNC(=S)Nc1ccc2nc3n(c(=O)c2c1)CCCCC3,-43.6%
20,CCOC(=O)C1=C(C)NC(=O)C1CC(=O)O (centres unmarked),35.5%
21,O=C(O)/C=C/c1ccc(S(=O)(=O)Nc2ccc3[nH]c(=O)[nH]c3c2)cc1,15.7%
22,CC(C)N1CCC(NC(=O)Nc2ccc3c(c2)OCO3)CC1,4.06%
